Test results as given in PubChem BioAssay AID743262 (National Center for Advancing Translational Sciences (NCATS), 2014).
The campaign covered roughly 1,300 compounds. About 25 (2%) were called active. Not shown: some 9% with an inconclusive outcome. The call rests on the fitted dose curve; in most records, active means well fitted activation curve with a large enough effect; inconclusive means small, poorly fitted or top-dose-only effect; inactive means flat fitted curve, though single readings scatter. The list shows a part of the results.

Molecular target: Glucagon-like peptide 1 receptor (Homo sapiens) (UniProt P43220)
Chain of UniProt P43220 (P43220 whole entry, looked up): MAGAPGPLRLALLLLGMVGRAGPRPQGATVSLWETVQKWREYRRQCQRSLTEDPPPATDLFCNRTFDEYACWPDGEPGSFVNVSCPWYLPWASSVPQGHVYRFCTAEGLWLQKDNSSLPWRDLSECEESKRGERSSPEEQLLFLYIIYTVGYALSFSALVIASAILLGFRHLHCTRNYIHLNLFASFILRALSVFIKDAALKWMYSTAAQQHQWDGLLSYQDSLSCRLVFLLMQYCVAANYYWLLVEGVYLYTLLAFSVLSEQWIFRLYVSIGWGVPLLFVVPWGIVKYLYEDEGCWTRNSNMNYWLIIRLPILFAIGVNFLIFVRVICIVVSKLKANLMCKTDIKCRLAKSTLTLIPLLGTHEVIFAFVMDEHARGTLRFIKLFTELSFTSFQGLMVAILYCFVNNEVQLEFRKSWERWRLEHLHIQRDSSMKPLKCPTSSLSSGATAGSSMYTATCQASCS
Assay: qHTS of GLP-1 Receptor Agonists: Hit Validation; on activation: % of control where 0% means no effect
Details: HEK293 GLP-1R, cAMP-response luciferase, 4-6 h; series mostly up to 46.1 µM; activation: at the top concentration
Procedure, shortened: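 HEK293 cells stably co-expressing a cAMP-responsive luciferase reporter and GLP-1R (hypersensitive receptor for weak agonists; wild-type line for confirmation) were plated 12 h at 37 °C, exposed to compound 4-6 h, then read by luminescence after 12 min detection reagent.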
Potency means the concentration at half of the fitted maximal effect.

Structure (SMILES)	activation	Potency
N#Cc1cc([N+](=O)[O-])cnc1Nc1ccccc1	inactive: 5.15%	
Cc1nccn1CC1CCc2c(c3ccccc3n2C)C1=O (stereo not drawn)	inactive: -1.07%	
Cc1oc(-c2ccc(C(=O)NCc3ccccc3Cl)cc2)nc1CN1CCc2ccccc21	inactive: -0.177%	
CCOC(=O)c1[nH]c(C)c(C(=O)c2cc(F)ccc2F)c1C	inactive: 17%	
COCc1cccc(-c2csc(C(C)(O)c3cccc(F)c3)n2)c1 (stereo not drawn)	inactive: 0.448%	
COc1cccc(C(=O)NCC2(c3ccc(OC)c(OC)c3)CCCC2)c1	inactive: 2.91%	
Cc1ccc(S(=O)(=O)n2c3ccc(Cl)cc3c3nc(C)sc32)cc1	inactive: 4.2%	
CCN(c1ccccc1)c1ncnc2c1cnn2-c1ccccc1	inactive: 7.22%	
O=C(c1cccc(Cl)c1)N1CCCC(c2ccc(Cl)cc2)=N1	inactive: 19.8%	
COc1cc(/C=C2\SC(=Nc3ccccc3)N(Cc3ccco3)C2=O)ccc1OC(C)C(=O)O (stereo not drawn)	inactive: 8.23%	
Cc1nn2c(NCCOCCO)c3c(nc2c1-c1ccccc1)CCCC3	inactive: 6.35%	
CCOC(=O)C1(COCc2ccccc2)CCCCC1=O (stereo not drawn)	inactive: -0.662%	
CN(C)c1nc(N)c([N+](=O)[O-])c(NCC2CCCO2)n1 (stereo not drawn)	inactive: 6.97%	
CCOC(=O)c1[nH]c(C)c(C(=O)OCC(=O)Nc2sc3c(c2C#N)CCCCC3)c1C	inactive: 0.323%	
CCCCCn1c(-c2ccco2)nc2nc3ccccc3nc21	inactive: 12.9%	
CCCCN(CCO)c1ncnc2sc(-c3ccccc3)cc12	inactive: 12.4%	
CCn1c(=NC(=O)c2cccc(N3C(=O)CCC3=O)c2)sc2c(C)ccc(OC)c21	inactive: 18.3%	
COC(=O)c1c(-c2ccncc2)csc1NC(=O)c1ccoc1C	inactive: 8.04%	
CCOC(=O)N1CCN(C(=S)NC2CCCCC2)CC1	inactive: 0.277%	
O=C(CCCOc1ccc(Cl)cc1Cl)N/N=C/c1ccccc1	inactive: 15.8%	
COc1ccc(C2=NOC(COc3ccc4c(C)cc(=O)oc4c3)C2)c(OC)c1 (stereo not drawn)	inactive: 29.5%	
CC1(C)CC(=O)C=C(c2cccc3c2sc2ccccc23)C1	inactive: 6.77%	
Cc1ccc(-c2cc(NC=O)c3ncc(-c4cnn(C)c4)n3c2)cc1	inactive: 22%	

Structure (SMILES)	activation	Potency
C=CCNc1nnnc2c1sc1nc(N3CCOCC3)c3c(c12)CCCC3	inactive: 13.5%	
COc1ccc([N+](=O)[O-])cc1NS(=O)(=O)c1cc(C(=O)N2CCN(C)CC2)ccc1OC	inactive: 2.19%	
COc1cc(-c2c(-c3cc(OC)c(OC)c(OC)c3)noc2C)ccc1F	inactive: 25.7%	
CCN(C(=O)c1cc2c(C)nc3ccccc3c2o1)c1cc(Cl)ccc1OC	inactive: 8.37%	
O=C(NCc1nc2ccccc2[nH]1)c1c(F)cccc1F	inactive: -0.724%	
CCn1c2ccc(OC)cc2c2nc3ccccc3nc21	inactive: 10.7%	
Cc1c(C(=O)Nc2ccc3c(c2)OCCO3)oc2ccc(Br)cc12	inactive: 2.23%	
COc1ccc2c(C)cc(=S)[nH]c2c1	inactive: 3.33%	
CC(C)NC(=O)c1ccc(COc2ccc(C(C)(C)C)cc2)o1	inactive: 2.36%	
O=c1c2ccccc2nc(-c2ccco2)n1Cc1ccccc1	inactive: 1.44%	
COc1ccc(C(C)=O)cc1CSCc1cc(C(C)=O)ccc1OC	inactive: 4.12%	
CCOc1ncccc1C(=O)OCc1ccc(C(=O)OC)o1	inactive: 3.21%	
Cc1ccc(O)c(NC(=O)C2CC(c3cccc(Br)c3)=NO2)c1 (stereo not drawn)	inactive: 5.03%	
COc1ccc(-n2c(SCC#N)nnc2-c2ccc(NS(=O)(=O)c3ccc(C)cc3)cc2)cc1	inactive: 2.8%	
Cc1cc2c(cc(C(=O)OCC(=O)NCc3cccs3)n2C(C)C)o1	inactive: 22.6%	
Cc1ccc(CNc2ccc(O)cc2)cc1	inactive: 0.472%	
CC(=O)Oc1cc(C)c(OC(C)=O)c2ccccc12	inactive: -0.473%	
CC1CCc2sc3nc(N4CCN(CCO)CC4)n4ncnc4c3c2C1 (stereo not drawn)	inactive: 16.2%	
COc1ccc(CNS(=O)(=O)CCNC(=O)c2ccc(OC)cc2)cc1	inactive: -1.08%	
Nc1nnnn1/N=C/c1ccccc1Cl	inactive: -0.611%	
C=C(C)CSc1nncn1/N=C/c1ccc(OC)cc1	inactive: 1.56%	
O=C(NCCc1ccccc1)c1ccc(-c2ccccc2Cl)o1	inactive: 3.41%	
COc1ccc(CC(=O)OCC(=O)N2c3ccccc3CC2C)cc1OC (stereo not drawn)	inactive: -0.291%	

Structure (SMILES)	activation	Potency
COc1ccc(-c2nnc(OCc3nc4ccccc4n3C)c3ccccc23)cc1	inactive: 18.7%	
CCn1c(SCC(=O)OC)nc2sc3c(c2c1=O)CCC3	inactive: 3.72%	
Nc1nc(Nc2ccccc2F)nc(N2CCCC2)c1[N+](=O)[O-]	inactive: 9.62%	
COc1ccc(/C=C2\CCC(C3CCCC3)C2=O)cc1 (stereo not drawn)	inactive: -0.535%	
CCc1nc2ccc(C(=O)Nc3ccc(OC)c(OC)c3)cn2c1N(CC)Cc1ccc(OC)c(OC)c1	inactive: 12.9%	
CC(CC1CC(C)(C)OC1=O)C(=O)Nc1nncs1 (stereo not drawn)	inactive: -1.07%	
Cc1cc(C)c2c3c(sc2n1)C(c1ccccc1)C(C#N)=C(N)O3 (stereo not drawn)	inactive: 11.5%	
CC(C)c1ccc(Nc2nc(Cl)nc(NCCO)n2)cc1	inactive: 2.61%	
CCOc1cc(CN2CCN(c3cccc(C(F)(F)F)c3)CC2)ccc1OC	inactive: 0.52%	
COc1cc2c(cc1OC)/C(=C/C(=O)c1cccc([N+](=O)[O-])c1)NCC2	inactive: 29.4%	
N#Cc1nc(-c2cccs2)oc1NCc1ccco1	inactive: 0.479%	
COc1ccc(CCN(C)C(=O)CCc2nnc(-c3ccccc3)o2)cc1OC	inactive: -0.272%	
CCCn1c2c(c(O)c(C(=O)NCCCN(CC)CC)c1=O)CCCC2	inactive: 0.237%	
COc1ccc(/C=C2\CCc3ccccc3C2=O)c(OC)c1OC	inactive: 1.42%	
O=c1cc(-c2ccccc2)oc2ccccc12	inactive: 6.68% [at 92.2 µM]	
OC(CNCc1cccc(Cl)c1)c1ccccc1 (stereo not drawn)	inactive: 15.6%	
COc1ccc(C(=O)COC(=O)c2sccc2C)cc1OC	inactive: 4.91%	
Cc1ccc(-c2nc3ccccc3[nH]2)cc1NC(=O)c1sc2ccccc2c1Cl	inactive: 0.319%	
COc1ccc(Nc2ccc(S(=O)(=O)N3CCCCC3)cc2[N+](=O)[O-])cc1OC	inactive: 3.02%	
CC(C)N(CCNC(=O)c1oc(=O)c2ccccc2c1-c1ccccc1)Cc1ccco1	inactive: 5.31%	
COc1ccc2nc(SCc3ccccc3)nc(C)c2c1	inactive: 5.73%	
COC(C)c1oc2c(C)c3oc(=O)cc(C)c3cc2c1C (stereo not drawn)	inactive: 6.59%	
COc1cc2c(cc1OC)C(c1cccc([N+](=O)[O-])c1)=NCC2	inactive: 16.3%	

Structure (SMILES)	activation	Potency
CN1C(C(=O)Nc2ccccn2)C(=O)c2sc(Cl)cc2S1(=O)=O (stereo not drawn)	inactive: -1.06%	
COc1ccc(/C=N/n2c(-c3ccc(C)cc3)n[nH]c2=S)cc1OC	inactive: 22.8%	
CC1CCCN(Cc2ccc(OCc3ccccc3)cc2)C1 (stereo not drawn)	inactive: 0.569%	
COC(=O)c1ccccc1NC(=O)COc1ccc(S(=O)(=O)NC(C)C)cc1	inactive: 19.6%	
CCN(c1ccccc1)c1nc(Cl)nc2c1cnn2C	inactive: 9.56%	
CCOc1ccc(Br)cc1S(=O)(=O)Nc1ccc(C(=O)OCC(=O)N(C)c2ccccc2)cc1	inactive: 0.375%	
CSc1ncccc1C(=O)OCCCC(=O)c1ccc(F)cc1	inactive: 0.334%	
COC(=O)C(C)Sc1ccc2nnc(-c3ccc(F)cc3)n2n1 (stereo not drawn)	inactive: -0.497%	
CCCc1ccc2oc(C(=O)N3CCC(COC)C3)c(C)c2c1 (stereo not drawn)	inactive: 2.34%	
COc1cc2c(cc1OC)-c1cc(NC3CC3)nc(=O)n1CC2	inactive: 10.1%	
CCOc1ccc(/C=C2/Sc3ccc(C(=O)NCC4CCCO4)cc3N(C)C2=O)cc1OC (stereo not drawn)	inactive: 18.7%	
COc1ccc(-c2cnc3c(NC(C)=O)cc(-c4cccc(NS(C)(=O)=O)c4)cn23)cc1OC	inactive: 27.9%	
CCOc1ccc(Oc2c(/C=N/NC(N)=O)c(C)nn2-c2ccccc2)cc1	inactive: 16%	
CCOC(=O)c1[nH]c(C)c(C(=O)Nc2cc(OC)ccc2OC)c1C	inactive: 8.95%	
N#Cc1nc(-c2cccs2)oc1NCc1ccccc1Cl	inactive: 11.1%	
COc1cc2cc(C)nc(Cc3cccc4ccccc34)c2cc1OC	inactive: 12.9%	
CCOc1ccc(-n2c(C)nc3cc(C(=O)NCCN4CCOCC4)ccc32)cc1	inactive: -0.63%	
O=[N+]([O-])c1ccc(N2CCNCC2)cc1NCc1cccnc1	inactive: 11.6%	
CCCc1nc(N)c(C#N)c(N)c1C#N	inactive: 12.8%	
CCSc1nc2cc(OC)c(OC)cc2c(=O)n1CC	inactive: 8.63%	
CCCCCCSC1=C(C#N)C(c2ccc(O)cc2)CC(=O)N1 (stereo not drawn)	inactive: -0.367%	
COc1cc2c(cc1OC)CN(C(=O)COc1ccccc1C#N)CC2	inactive: 10.5%	
O=C(O)CC1(CC(=O)Nc2ccc(C(F)(F)F)cc2)CCCC1	inactive: -1.63%	

Structure (SMILES)	activation	Potency
COc1cc2c(c3oc(-c4ccccc4)cc(=O)c13)C=CC(C)(C)O2	inactive: 14.1%	
CCOc1cc(/C=C2/C(=O)ON=C2C)ccc1OCc1ccccc1F	inactive: -1.64%	
CSc1ccc(CN2CCCC(CNC(=O)c3ccc(F)cc3)C2)cc1 (stereo not drawn)	inactive: -0.442%	
COc1cc2c(cc1OC)/C(=C/C#N)NC(C)(C)C2	inactive: 18.3%	
O=C(c1ccccc1)n1c2ccccc2c(=O)n1-c1ccccc1CCl	inactive: -0.375%	
COc1ccc(CCNc2oc(Cc3cccc4ccccc34)nc2C#N)cc1OC	inactive: 11.5%	
Cc1cccc(OCCSc2cc(C)nc(N)n2)c1	inactive: 1.84%	
COc1ccc(-c2cc(-c3ccc(O)cc3)nc(N)c2C#N)cc1OC	inactive: 20%	
C=C(C)CSc1cc(C)nc2c(-c3ccccc3)c(C)nn12	inactive: 7.88%	
Cc1ccc(CCNC(=O)C2CCC(=O)N(Cc3cccc(F)c3)C2)cc1 (stereo not drawn)	inactive: -1.17%	
Cc1c(C(=O)NCc2cccnc2)oc2ccc(S(=O)(=O)N3CCCCC3)cc12	inactive: 1.02%	
COc1ccc(C(=O)COC(=O)c2cc([N+](=O)[O-])ccc2N2CCOCC2)c(OC)c1		active: 20.6 µM
CCc1nc(NCCCn2ccnc2)c2oc3ccccc3c2n1	inactive: 2.8%	
O=C(Cn1nc(-c2ccc(N3CCOCC3)c([N+](=O)[O-])c2)c2ccccc2c1=O)N1CCCCC1	inactive: 20.3%	
OC(c1ccccc1)c1nc(-c2csc3ccccc23)cs1 (stereo not drawn)		active: 7.31 µM
COc1ccc(-c2nc(C#N)c(NCc3cccnc3)o2)cc1OC	inactive: 14.4%	
COc1ccccc1N1CCN(C(=O)/C=C/c2ccco2)CC1	inactive: 2.92%	
OCCNc1nc(-c2ccccc2)c2cc(Cl)ccc2n1	inactive: 15.5%	
CCOc1ccc(-c2cc3nc(C4CCN(C(=O)OC(C)(C)C)CC4)c(C(=O)O)cn3n2)cc1	inactive: 15%	
COc1ccc(-c2nc(C#N)c(NCc3ccc(F)cc3)o2)cc1OC	inactive: 24.3%	
COc1ccc(C(=O)c2ccc(OC)c3cccc(O)c23)cc1OC	inactive: 3.47%	
